# Several values for one entry are separate records, joined by “and”; a condition that tells them apart may be missing. Identical values can stand only once. This list was built around the results that the source calls inconclusive (neither active nor inactive); the mix of calls is not that of the screen. For some of these results: Potencies of inconclusive entries are doubtful fits and often do not repeat. Activity calls are given as the source filed them. Calls follow the shape of the dose curve; as a rule, active = well fitted curve in the direction sought with a large enough effect; inconclusive = small, poorly fitted or top-dose-only effect, or another doubt; inactive = no such curve, though single readings can be large; an effect the other way counts as inactive or inconclusive.
# How the values were obtained:
# MCC-13 = test: qHTS assay to identify novel small-molecules to repurpose for Merkel cell carcinoma treatment (AID 1296009); conditions: MCC and control cell lines, CellTiter-Glo viability, 72 h; series mostly up to 46 µM; also: nearly all actives have a fitted effect of over 60% in size
# Summary of the method: (§1)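 Cells were incubated with compound for 72 hr at 37 degree celsius before CellTiter-Glo addition. Luminescence was normalized with no-cell wells as full cytotoxicity and DMSO as baseline.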
# MKL-1 = test: as above; conditions: MCC and control cell lines, CellTiter-Glo viability, 72 h; activity change, negative = cytotoxicity: at 46 µM (top of the series) unless noted
# Summary of the method: as §1
# MKL-2 = test: as above; conditions: MCC and control cell lines, CellTiter-Glo viability, 72 h; series mostly up to 46 µM
# Summary of the method: as §1
# UISO = test: as above; conditions: MCC and control cell lines, CellTiter-Glo viability, 72 h; activity change, negative = cytotoxicity: at 46 µM (top of the series) unless noted
# Summary of the method: as §1
# WaGa = test: as above; conditions: MCC and control cell lines, CellTiter-Glo viability, 72 h; series mostly up to 46 µM
# Summary of the method: as §1
# C33A = test: Primary qHTS to identify gynecologic anti-cancer compounds using libraries of approved drugs and bioactive compounds (AID 1345084); conditions: Gynecologic cancer cell panel viability, ATPlite luminescence, 48 h; series mostly up to 57.5 µM; also: nearly all actives have a fitted effect of over 55% in size
# Summary of the method: (§2)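 Five-concentration response, 48 h; readout is ATP-driven luciferase luminescence.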
# CAOV3 = test: as above; conditions: Gynecologic cancer cell panel viability, ATPlite luminescence, 48 h; series mostly up to 57.5 µM
# Summary of the method: as §2
# CASKI = test: as above; conditions: Gynecologic cancer cell panel viability, ATPlite luminescence, 48 h; series mostly up to 57.5 µM
# Summary of the method: as §2
# Es-2 = test: as above; conditions: Gynecologic cancer cell panel viability, ATPlite luminescence, 48 h; series mostly up to 57.5 µM
# Summary of the method: as §2
# HeLa = test: as above; conditions: Gynecologic cancer cell panel viability, ATPlite luminescence, 48 h; series mostly up to 57.5 µM
# Summary of the method: as §2
# Hek293T = test: as above; conditions: Gynecologic cancer cell panel viability, ATPlite luminescence, 48 h, control line for the selectivity index; series mostly up to 57.5 µM
# Summary of the method: as §2
# JEG-3 = test: as above; conditions: Gynecologic cancer cell panel viability, ATPlite luminescence, 48 h; series mostly up to 57.5 µM
# Summary of the method: as §2
# OV90 = test: as above; conditions: Gynecologic cancer cell panel viability, ATPlite luminescence, 48 h; series mostly up to 57.5 µM
# Summary of the method: as §2
# MCC-26 = test: qHTS assay to identify novel small-molecules to repurpose for Merkel cell carcinoma treatment (AID 1296009); conditions: MCC and control cell lines, CellTiter-Glo viability, 72 h; series mostly up to 46 µM; also: nearly all actives have a fitted effect of over 60% in size
# Summary of the method: as §1
# PC49 = test: qHTS profiling for inhibitors of Plasmodium falciparum proliferation (AID 504749); also: nearly all actives have a fitted effect of over 60% in size; conditions: P. falciparum in erythrocytes, SYBR Green DNA, 72 h; series mostly up to 28.7 µM
# Summary of the method: (§3)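 Readout was DNA-dye fluorescence from lysed cultures, ex 485/em 535 nm. Parasitized red cells had grown 72 h with compound; data scaled between 0.29 uM artemisinin and DMSO wells and corrected using vehicle-only plates.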
# TAB109 = test: as above; conditions: P. falciparum in erythrocytes, SYBR Green DNA, 72 h; series mostly up to 28.7 µM
# Summary of the method: as §3
# TAB113 = test: as above; conditions: P. falciparum in erythrocytes, SYBR Green DNA, 72 h; series mostly up to 28.7 µM
# Summary of the method: as §3
# TAB165 = test: as above; conditions: P. falciparum in erythrocytes, SYBR Green DNA, 72 h; series mostly up to 28.7 µM
# Summary of the method: as §3
# W2 = test: as above; conditions: P. falciparum in erythrocytes, SYBR Green DNA, 72 h; series mostly up to 28.7 µM
# Summary of the method: as §3
# Potency is read from the fitted curve at half-maximal effect; tags tell the direction and shape of the fitted curve.
compound,measurement,setting,value
COCC1(CO)C(=O)C2CCN1CC2 (centres undefined),Potency,MCC-13,inactive
same,Potency,MKL-1,active: 2.09 µM
same,Potency,MKL-2,"inconclusive: 0.743 µM [inhibitor, full curve]"
same,Potency,UISO,"inconclusive: 1.32 µM [inhibitor, full curve]"
CCC(OC(C)=O)C(CC(C)NC)(c1ccccc1)c1ccccc1 (centres undefined),Potency,MCC-13,"inconclusive: 43.7 µM [inhibitor, single point]"
same,Potency,MKL-1,"inconclusive: 43.7 µM [inhibitor, single point]"
same,Potency,MKL-2,"inconclusive: 27.6 µM [inhibitor, partial curve, poor fit]"
same,Potency,UISO,active: 49.1 µM
same,Potency,WaGa,"inconclusive: 55 µM [inhibitor, single point]"
same,Potency,C33A,"inconclusive: 70.8 µM [cytotoxic, single point]"
same,Potency,CAOV3,active: 39.8 µM
same,Potency,CASKI,"inconclusive: 63.1 µM [cytotoxic, single point]"
same,Potency,Es-2,"inconclusive: 100 µM [cytotoxic, single point]"
same,Potency,HeLa,active: 31.6 µM
same,Potency,Hek293T,"inconclusive: 63.1 µM [cytotoxic, single point]"
same,Potency,JEG-3,"inconclusive: 100 µM [cytotoxic, single point]"
same,Potency,OV90,"inconclusive: 100 µM [cytotoxic, partial curve, poor fit]"
N=c1c2c(-c3ccccc3)c(-c3ccccc3)n(Cc3ccccc3)c2ncn1C1CCC(O)CC1 (centres undefined),Potency,MCC-13,"inconclusive: 4.69 µM [inhibitor, partial curve]"
same,Potency,MKL-1,active: 18.7 µM
same,Potency,MKL-2,active: 14.8 µM
same,Potency,UISO,active: 3.72 µM
same,Potency,WaGa,active: 2.64 µM
O=C1C=CC[C@@H]2[C@H]3CCCN4CCC[C@@H](CN12)[C@@H]34,Potency,MCC-13,inactive
same,Potency,MKL-1,inactive
same,Potency,MKL-2,inactive
COc1cc(CC(C)N)c(OC)cc1Br (centres undefined),Potency,MCC-13,"inconclusive: 14.2 µM [inhibitor, full curve]"
same,Potency,MCC-26,"inconclusive: 56.6 µM [inhibitor, single point]"
same,Potency,MKL-1,"inconclusive: 5.04 µM [inhibitor, full curve]"
same,Potency,C33A,"inconclusive: 100 µM [cytotoxic, single point]"
same,Potency,CASKI,"inconclusive: 100 µM [cytotoxic, single point]"
same,Potency,Hek293T,"inconclusive: 100 µM [cytotoxic, single point]"
C[C@@H]1C[C@@H]([C@H](O)CC2CC(=O)NC(=O)C2)C(=O)[C@@H](C)C1,Potency,MCC-13,active: 944 nM and active: 4.69 µM
same,Potency,MCC-26,"inconclusive: 10.6 µM [inhibitor, partial curve] and inconclusive: 6.62 µM [inhibitor, partial curve]"
same,Potency,MKL-1,"inconclusive: 1.06 µM [inhibitor, full curve]"
same,Potency,MKL-2,"inconclusive: 0.841 µM [inhibitor, full curve]"
same,Potency,UISO,active: 1.06 µM and active: 1.18 µM
same,Potency,C33A,"inconclusive: 1.26 µM [cytotoxic, full curve, poor fit]"
same,Potency,CAOV3,active: 25.1 µM
same,Potency,CASKI,"inconclusive: 31.6 µM [cytotoxic, partial curve, poor fit]"
same,Potency,Es-2,active: 0.794 µM
same,Potency,HeLa,"inconclusive: 3.55 µM [cytotoxic, partial curve, poor fit]"
same,Potency,Hek293T,active: 0.501 µM
same,Potency,OV90,active: 0.631 µM
Oc1ccc(Cl)cc1Cc1ccccc1,Potency,PC49,"inconclusive: 17.8 µM [inhibitor, single point]"
same,Potency,TAB109,"inconclusive: 11.2 µM [inhibitor, single point]"
same,Potency,TAB113,"inconclusive: 11.2 µM [inhibitor, single point]"
same,Potency,MCC-13,"inconclusive: 34.7 µM [inhibitor, single point]"
same,Potency,MKL-1,"inconclusive: 34.7 µM [inhibitor, partial curve]"
same,Potency,MKL-2,"active: 21.9 µM and inconclusive: 26.6 µM [inhibitor, single point]"
same,Potency,UISO,"active: 34.7 µM and inconclusive: 29.9 µM [inhibitor, single point]"
same,Potency,WaGa,"inconclusive: 39 µM [inhibitor, partial curve] and inconclusive: 33.5 µM [inhibitor, single point]"
same,Potency,CAOV3,inactive
same,Potency,OV90,"inconclusive: 31.6 µM [cytotoxic, partial curve, poor fit] and inconclusive: 39.8 µM [cytotoxic, single point]"
C=CCON=C(C[C@H]1O[C@@H]2O[C@]3(C)CC[C@@H]4[C@H](C)CC[C@@H]([C@H]1C)[C@@]24OO3)[C@H]1O[C@@H]2O[C@]3(C)CC[C@H]4[C@H](C)CC[C@@H]([C@@H]1C)[C@@]24OO3,Potency,MCC-13,"inconclusive: 2.35 µM [inhibitor, full curve]"
CC(=O)O[C@@]12CO[C@H]1C[C@H](O)[C@@]1(C)C(=O)[C@H](O)C3=C(C)[C@@H](O)C[C@@](O)([C@@H](OC(=O)c4ccccc4)[C@@H]21)C3(C)C,Potency,MCC-13,"inconclusive: 18.7 µM [inhibitor, partial curve]"
same,Potency,MCC-26,"inconclusive: 13.2 µM [inhibitor, partial curve, poor fit]"
same,Potency,MKL-1,"inconclusive: 3.72 µM [inhibitor, full curve]"
same,Potency,WaGa,"inconclusive: 4.69 µM [inhibitor, full curve]"
Cc1c(N)nc([C@H](CC(N)=O)NC[C@@H](N)C(N)=O)nc1C(=O)N[C@H](C(=O)N[C@@H](C)[C@H](O)[C@@H](C)C(=O)N[C@@H](C(=O)NCCc1nc(-c2nc(C(=O)NCCC[S+](C)C)cs2)cs1)[C@@H](C)O)C(O[C@H]1O[C@H](CO)[C@H](O)[C@@H](O)[C@@H]1O[C@H]1O[C@H](CO)[C@@H](O)[C@H](OC(N)=O)[C@H]1O)c1cnc[nH]1 (some centres undefined),Potency,MCC-13,"inconclusive: 1.32 µM [inhibitor, full curve]"
same,Potency,MCC-26,"inconclusive: 16.6 µM [inhibitor, partial curve]"
same,Potency,MKL-1,"inconclusive: 1.66 µM [inhibitor, full curve]"
same,Potency,UISO,"inconclusive: 1.32 µM [inhibitor, full curve]"
Clc1ccc(CCC(Cn2ccnc2)Sc2c(Cl)cccc2Cl)cc1 (centres undefined),Potency,MCC-13,"inconclusive: 16.8 µM [inhibitor, partial curve, poor fit]"
same,Potency,MKL-1,"inconclusive: 26.6 µM [inhibitor, single point]"
same,Potency,MKL-2,"inconclusive: 26.6 µM [inhibitor, single point]"
same,Potency,UISO,"inconclusive: 21.1 µM [inhibitor, partial curve] and inconclusive: 23.5 µM [inhibitor, single point]"
same,Potency,WaGa,"inconclusive: 33.5 µM [inhibitor, single point]"
same,Potency,C33A,"inconclusive: 28.2 µM [cytotoxic, single point]"
same,Potency,Hek293T,"inconclusive: 39.8 µM [cytotoxic, single point]"
same,Potency,OV90,"inconclusive: 28.2 µM [cytotoxic, single point]"
CCCCCCCCCCCC[N+](C)(C)CCOc1ccccc1,Potency,TAB109,active: 5.01 µM
same,Potency,TAB113,active: 4.47 µM
same,Potency,TAB165,active: 5.62 µM
same,Potency,W2,active: 3.79 µM
same,Potency,MCC-13,"inconclusive: 26.6 µM [inhibitor, single point]"
same,Potency,MCC-26,active: 23.7 µM
same,Potency,MKL-2,active: 1.06 µM
same,Potency,UISO,active: 9.44 µM
same,Potency,C33A,"inconclusive: 28.2 µM [cytotoxic, single point]"
same,Potency,CAOV3,"inconclusive: 31.6 µM [cytotoxic, single point]"
same,Potency,CASKI,"inconclusive: 28.2 µM [cytotoxic, single point]"
same,Potency,Es-2,active: 31.6 µM
same,Potency,Hek293T,"inconclusive: 28.2 µM [cytotoxic, partial curve, poor fit]"
same,Potency,OV90,"inconclusive: 28.2 µM [cytotoxic, single point]"
COc1ccc(N(C(=O)Oc2c(C)cccc2C)c2ccnc(Nc3ccc(N4CCN(C)CC4)cc3)n2)c(OC)c1,Potency,MCC-13,"inconclusive: 20.9 µM [inhibitor, partial curve, poor fit]"
same,Potency,MCC-26,"inconclusive: 33.2 µM [inhibitor, single point]"
same,Potency,MKL-2,"inconclusive: 11.8 µM [inhibitor, full curve]"
same,Potency,C33A,"inconclusive: 10 µM [cytotoxic, partial curve, poor fit]"
same,Potency,CAOV3,inactive
same,Potency,Es-2,inconclusive: 5.01 µM
same,Potency,HeLa,inconclusive: 2.24 µM
C=CC[C@]1(O)CC[C@H]2[C@@H]3CCC4=CC(=O)CCC4=C3C=C[C@@]21C,Potency,MCC-13,inactive
same,Potency,MCC-26,inactive
same,Potency,MKL-1,inactive
same,Potency,MKL-2,"inconclusive: 18.8 µM [inhibitor, partial curve, poor fit]"
same,Potency,C33A,"inconclusive: 12.6 µM [cytotoxic, partial curve, poor fit]"
same,Potency,OV90,"inconclusive: 11.2 µM [cytotoxic, partial curve, poor fit]"
c1ccc2c(c1)OCC(C1=NCCN1)O2 (centres undefined),Potency,PC49,"inconclusive: 11.2 µM [inhibitor, single point]"
same,Potency,W2,"inconclusive: 13.5 µM [inhibitor, single point]"
same,Potency,MCC-13,"inconclusive: 33.5 µM [inhibitor, single point]"
same,Potency,MCC-26,"inconclusive: 23.7 µM [inhibitor, single point]"
same,Potency,UISO,"inconclusive: 21.1 µM [inhibitor, single point]"
same,Potency,C33A,"inconclusive: 39.8 µM [cytotoxic, single point]"
same,Potency,CAOV3,"inconclusive: 39.8 µM [cytotoxic, single point]"
same,Potency,CASKI,"inconclusive: 39.8 µM [cytotoxic, single point]"
same,Potency,Es-2,"inconclusive: 39.8 µM [cytotoxic, single point]"
same,Potency,HeLa,"inconclusive: 35.5 µM [cytotoxic, single point]"
same,Potency,Hek293T,active: 28.2 µM
same,Potency,OV90,"inconclusive: 39.8 µM [cytotoxic, single point]"
